Test results taken from PubChem BioAssay AID1963576 (National Center for Advancing Translational Sciences (NCATS), 2024).
Hit rate of the full screen: of about 46,000 compounds, about 60 (0.1%) were called active. Not shown: some 3% with an inconclusive outcome. The call rests on the fitted dose curve; in most records, active means well fitted inhibition curve with a large enough effect; inconclusive means small, poorly fitted or top-dose-only effect; inactive means no such curve, though single readings can be large or run the other way. This is one part of the list.

Assay: Primary qHTS assay for Inhibitors of ovarian cancer metastasis using an organotypic tumor microenvironment (TME) model. Further: nearly all actives have a fitted effect of over 65% in size.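 On activity change, negative = inhibition: plate controls were DMSO wells for no effect and tomatine positive control wells for full effect.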
Conditions: SKOV3ip1-GFP adhesion/invasion on 3D omental model, fluorescence; series mostly up to 45.8 µM; activity change, negative = inhibition: at the top concentration
Outline: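 Adhesion/invasion was scored as fixed GFP-labeled SKOV3ip1 cell counts (488/509 nm), normalized to DMSO and tomatine controls. Cancer cells in serum-free medium, with four compound doses (0.36-46 umol/L), sat 2 hr at RT then 16 hr at 37 C on a 48 hr fibroblast/mesothelial/ECM culture.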

Activity change, negative = inhibition, inactive:
CCOc1ccc(NC(=O)CSC2=Nc3ccccc3C3=NC(CCC(=O)NCc4ccco4)C(=O)N23)cc1 (stereo unspecified) -13.1%
Cc1ccc(Cl)cc1N1CCN(C(=O)Cn2ncc3c4ccccc4n(C)c3c2=O)CC1 -1.44%
CCC(=O)Oc1c(Sc2ccc(Cl)cc2)c(C)nn1-c1ccccc1 -1.32%
Cc1ccc(-c2nc(CS(=O)(=O)CC(=O)Nc3ccc(Br)cc3F)c(C)o2)cc1 -3.81%
Cc1ccc(Nc2c(-c3ccc(Br)o3)nc3ccccn23)cc1 0.472%
COc1ccc(S(=O)(=O)NCc2nc3nc(C)cc(C)n3n2)cc1 9.68%
CCN(CC)S(=O)(=O)c1ccc2c(c1)N(CC(=O)NCc1ccccc1)C(=O)C1CCCCN21 (stereo unspecified) 2.73%
Cc1cc2c(cc1S(=O)(=O)Nc1ccc(OC(F)(F)F)cc1)OCC(=O)N2 0.492%
Cc1ccc(-c2csc(-c3cc4c([nH]c3=O)CC(c3ccccc3)CC4=O)n2)cc1 (stereo unspecified) 6.92%
Cc1cc(C=c2sc3nc4ccccc4n3c2=O)c(C)n1-c1ccccc1 -26.9%
CC1CCCN(c2nc3c(-c4ccc(Cl)cc4)nnn3c3ccccc23)C1 (stereo unspecified) 3.03%
Cc1nc(SCc2cccc(Cl)c2)nc2c1CCCC2 1.41%
Cc1ccccc1Cn1c(SCc2ccc(C(=O)NC3CCCCC3)cc2)nc2ccncc21 -6.9%
Cc1ccc2ncc(C(=O)c3ccc(C)c(C)c3)c(S(=O)(=O)c3ccc(F)cc3)c2c1 -1.96%
CCOc1ccc(CC(=O)NCCc2sc3nc(-c4ccc(F)cc4)nn3c2C)cc1 6.19%
Fc1ccc(NCc2ccccc2-c2nnc(-c3ccccc3Cl)o2)cc1 0.459%
CCOc1ccc(-c2cc3nc(C4CCN(C(=O)OC(C)(C)C)CC4)c(C(=O)Nc4cccc(CC)c4)cn3n2)cc1 -10.1%
COc1cc(NC(=O)Cn2c(=O)cc(C)c3c(C)nn(-c4ccc(C)cc4)c32)cc(OC)c1 -8.9%
Cc1ccc(CNc2nnc(C)c3nnn(Cc4ccc(F)cc4)c23)cc1 4.93%
CC1=C(c2ccc(Cl)cc2)S(=O)(=O)N=C1N1CCN(c2cccc(C)c2C)CC1 -2.41%
CCCCOc1ccc(C(=O)N(Cc2ccc(N(C)C)cc2)Cc2ccco2)cc1 -7.56%
Cc1ccc(-n2ccn(CC(=O)NCCc3ccccc3)c(=O)c2=O)cc1C 0.274%
CC(C)(C)c1ccc(-c2nc(NC(=O)CSc3ncnc4sc5c(c34)CCCC5)ns2)cc1 3.84%
COc1ccc(NC(=O)CN(C)S(=O)(=O)c2ccc3c(c2)CCCN3C(C)=O)cc1 25.6%
CCc1ccc(NC(=O)CSc2nccn2-c2ccc(F)cc2)cc1 -17.7%
Cc1ccccc1CNC(=O)c1ccc2nc(SCc3ccc(F)cc3)n(C)c2c1 -9.93%
CCOCCCNC(=O)C(c1ccccc1)N(Cc1ccc2c(c1)OCO2)C(=O)c1ccc(NC(C)=O)cc1 (stereo unspecified) 4.3%
COc1ccccc1NC(=O)CSc1nncn2c1cc1sccc12 -23%
O=C(c1ccco1)N(Cc1cccnc1)c1nc2c(F)cc(F)cc2s1 -6.72%
COc1ccc2cc1Oc1ccc(cc1)C[C@H]1c3cc(c(OC)cc3CCN1C)Oc1c(OC)c(OC)cc3c1[C@H](C2)N(C)CC3 1.09%
CCc1ccccc1NC(=O)Cn1cc(S(=O)(=O)N2CCCC2)c(S(=O)(=O)N2CCCC2)c1 1.55%
CCc1ccccc1NC(=O)CN(c1ccccc1)S(=O)(=O)c1ccsc1C(=O)OC -2.51%
Cc1ccccc1CN1C(=O)c2ccccc2S(=O)c2ccc(C(=O)NCc3ccc(Cl)cc3)cc21 (stereo unspecified) 0.468%
CCOC(=O)c1ccc(NC(=O)C(CC)Sc2nc3ccncc3[nH]2)cc1 (stereo unspecified) -3.36%
Cc1cc(C)cc(-n2c(C)cc(C(=O)C(=O)Nc3ccccc3F)c2C)c1 2.85%
CCn1c(=O)cc(SCC(=O)NCc2cccc(Cl)c2)c2ccccc21 -7.2%
COc1ccccc1C(=O)N1c2ncnn2C2(CCCCC2)[C@@H]2CCCC[C@@H]21 -0.919%
CC(C)c1ccc(OCC(=O)NCCS(=O)(=O)N2CCN(c3ccc(F)cc3)CC2)cc1 -0.117%
Cc1c(Cl)cccc1NC(=O)c1ccc2c(c1)CCCN2S(C)(=O)=O -23%
CCCCOc1ccc(C(=O)Nc2ccc(-c3cc4ccccc4oc3=O)cc2)cc1 -1.31%
CC(C)(C)OC(=O)N1CCC(c2c(C(=O)NCCN3CCc4ccccc4C3)cnn2-c2ccc(F)cc2)CC1 0.168%
Cc1ccc(CNC(=O)Nc2cc(C(=O)NCc3ccc(C(C)C)cc3)ccc2N2CCCC2)cc1 -0.653%
Cc1ccc(N2CC(NC(=O)c3cc4ccccc4o3)CC2=O)cc1C (stereo unspecified) -5.94%
CCc1ccccc1NC(=O)CCOc1ccccc1 -12.1%
CCCOc1ccc(-c2nonc2NC(=O)c2cc(OC)c(OC)c(OC)c2)cc1OCCC -17%
CC(C)c1nn2c(=O)cc(COC(=O)c3cccc(NC(=O)c4cccs4)c3)nc2s1 1.59%
COCCNC(=O)c1c[nH]c2ccc(S(=O)(=O)Nc3ccc(F)cc3F)cc2c1=O 16.5%
Cn1ccc2c(OCC(=O)NCc3ccccc3)cccc2c1=O -0.432%
CCOC(=O)c1cnc2nc(NCc3cccc(Br)c3)[nH]n2c1=O -3.06%
COc1ccc(CNC(=O)c2ccc3c(c2)N(Cc2ccc(C)cc2)CCS3)cc1 -6.47%
CCc1ccccc1NC(=O)Cn1c(=O)n(-c2ccc(CC(=O)NCC3CCCO3)cc2)c(=O)c2ccccc21 (stereo unspecified) -1.54%
Cc1ccc(CNC(=O)C2COc3ccccc3C2)cc1 (stereo unspecified) -0.671%
COc1ccc2c(c1)Cc1sc(NC(=O)c3cccc(C)c3)nc1-2 -10.1%
Cc1cc(C)cc(NC(=O)C2CCCN2S(=O)(=O)c2ccc3c(c2)CCCC(=O)N3)c1 (stereo unspecified) -12.3%
Cc1ccc(OCC(=O)OC2=C(C(=O)c3ccccc3)N(C)S(=O)(=O)c3ccccc32)cc1 -4.67%
Cc1ccccc1NC(=O)c1sc2nc3n(c(=O)c2c1C)CCC3 -6.87%
COC(=O)CSc1nc2sc3c(c2c(=O)n1-c1ccccc1C)CC(C)(C)OC3 4.51%
Clc1ccc(-c2nc3c4cnn(-c5ccccc5Br)c4ncn3n2)c(Cl)c1 4.25%
Cc1ccc(-n2nnc(-c3nc(-c4cccs4)no3)c2N)c(C)c1 14.1%
O=S(=O)(Nc1cccc(C(F)(F)F)c1)c1ccc(-c2cnc(C3CC3)o2)cc1 -25.4%
COc1ccc(S(=O)(=O)c2c(C(=O)c3ccc(C)c(C)c3)cnc3ccc(F)cc23)cc1 -18.3%
CCCCCSc1nc2sc3c(c2c(=O)n1-c1ccc(OC)cc1)CCN(C(C)=O)C3 -12.7%
COc1ccc(S(=O)(=O)NCc2cccn2Cc2cccc(C)c2)cc1 -1.96%
Cc1ccc(Nc2c(-c3ccsc3)nc3c(C)cccn23)cc1 -16.4%
COc1ccccc1CNC(=O)Cn1ncn2c(cc3sccc32)c1=O 2.76%
COc1cc2c(cc1NC(=O)COc1ccc(Cl)cc1Br)oc1ccccc12 0.396%
Cc1c(C)n(C)c2ccc(C(=O)NCc3cccc(F)c3)cc12 -8.28%
COc1ccc(Cn2ccc3nc(C)c(C(=O)NCc4cccc(OC)c4)cc3c2=O)cc1 3.9%
CCc1ccccc1NC(=O)Cn1c2ncccc2c(=O)n1-c1ccccc1 -8.36%

outcome, inactive:
O=C(NCCCN1CCN(c2cccc(Cl)c2)CC1)c1sc2ncccc2c1-n1cccc1
COc1ccc2oc(=O)c(-c3nnc(-c4ccc(C)cc4)o3)cc2c1
Cc1cc(Cl)ccc1NS(=O)(=O)c1c(C(=O)N2CCC(C)CC2)c(C)n(C)c1C
CC(C)N(Cc1nc(-c2ccc(Cl)cc2)no1)C(=O)c1ccc(C(C)(C)C)cc1
O=C(NCCc1csc(-c2cccnc2)n1)c1cccc(Cl)c1
CC(=O)N1c2ccc(S(=O)(=O)N3CCCCCC3)cc2CC1C(=O)NCc1cccc(C)c1 (stereo unspecified)
COc1cccc(CN2C(=O)c3ccccc3Sc3ccc(C(=O)OCc4ccco4)cc32)c1
Cc1ccc(-n2ncc3c(NCc4ccccc4)ncnc32)cc1Cl
COc1ccc(N2CC(NC(=O)/C=C\c3ccc4c(c3)OCO4)CC2=O)cc1OC (stereo unspecified)
Cc1ccc2cccc(NC(=O)c3ccc(OC(C)C)cc3)c2n1
O=C(NCc1ccc2c(c1)OCO2)c1ccc2c(c1)N(Cc1ccccc1F)C(=O)c1ccccc1S2
CCCOc1ccc(-c2cccc(NS(=O)(=O)c3ccccc3)c2)nn1
CCC(=O)C1=C(c2ccc(F)cc2)N(C(=O)CC)n2cnnc2S1
COc1ccc(Cn2c(C(=O)O)c(CNC3CCCC3)c3ccc(OC)cc32)cc1
CCOc1ccc(-c2nn(-c3ccccc3)cc2C2NC(=O)NC(C)=C2C(=O)OC(C)C)cc1 (stereo unspecified)
CCc1ccc(C2=NN(CCC(=O)NCCc3ccc(OC)c(OC)c3)C(=O)CC2)cc1
COc1ccccc1CNS(=O)(=O)c1ccc(-c2cnc(C3CC3)o2)cc1
Cc1ccccc1C(=O)Nc1ccc2nc(SCC(=O)N3CCc4ccccc43)sc2c1
COc1ccc(CSc2nc3ccncc3n2CC(=O)Nc2ccc(C)c(F)c2)cc1
Cc1cc(C)cc(-n2ccn(Cc3ccccc3C)c(=O)c2=O)c1
COc1ccc(CCNC(=O)CCS(=O)(=O)c2cc(Br)cc3c2N(C(C)=O)CC3)cc1OC
COc1ccccc1CNC(=O)CC(c1ccc(C)cc1)N1Cc2ccccc2C1=O (stereo unspecified)
Cc1oc(-c2ccc(C(=O)NCCC(C)C)cc2)nc1CN1CCc2ccccc21
CCc1ccc(NS(=O)(=O)c2cc(-c3cnc(C4CC4)o3)ccc2C)cc1
CC(C)c1ccc(OCC(=O)Nc2c(C(=O)c3ccc(F)cc3)oc3ccccc23)cc1
COc1ccccc1NC(=O)CC(c1cc(OC)c(OC)c(OC)c1)N1Cc2ccccc2C1=O (stereo unspecified)
Cc1ccc(-n2nc3c(=O)n(CC(=O)NCC(C)c4ccccc4)nc(C)c3c2C)cc1 (stereo unspecified)
